# Laboratory results published in the supplement of paper PMC8728848.
# The other results are listed elsewhere or left out.
# What was measured:
# Assay in all cases: glycan array binding signal (z-score within array); higher = stronger binding
# Conditions in all cases: glycan notation: IUPAC condensed, linker removed
# Man(b1-4)GlcNAc = target: Man(b1-4)GlcNAc
# Summary of the method: (§1)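 Columns mapping to the same glycan were averaged after glycan names were converted to IUPAC-condensed notation. The data come from 3228 arrays in the Consortium for Functional Glycomics database, limited to those with an available protein sequence. Binding is reported as a within-array Z-score averaged across arrays of one protein sequence and across linkers.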
# Neu5Ac(a2-3)Gal = target: Neu5Ac(a2-3)Gal
# Summary of the method: as §1
# [1] = target: Neu5Ac(a2-3)Gal(b1-3)GalNAc
# Summary of the method: as §1
# [2] = target: Neu5Ac(a2-3)Gal(b1-3)GalNAc(b1-3)Gal(a1-4)Gal(b1-4)Glc
# Summary of the method: as §1
# [3] = target: Neu5Ac(a2-3)Gal(b1-3)GalNAc(b1-3)Gal(b1-4)GlcNAc
# Summary of the method: as §1
# [4] = target: Neu5Ac(a2-3)Gal(b1-3)GalNAc(b1-4)[Neu5Ac(a2-3)]Gal(b1-4)Glc
# Summary of the method: as §1
# [5] = target: Neu5Ac(a2-3)Gal(b1-3)GalNAc6S
# Summary of the method: as §1
# [6] = target: Neu5Ac(a2-3)Gal(b1-3)GlcNAc
# Summary of the method: as §1
# [7] = target: Neu5Ac(a2-3)Gal(b1-3)GlcNAc(b1-3)Gal(b1-3)GlcNAc
# Summary of the method: as §1
# [8] = target: Neu5Ac(a2-3)Gal(b1-3)GlcNAc6S
# Summary of the method: as §1
# [9] = target: Neu5Ac(a2-3)Gal(b1-3)[Fuc(a1-4)]GlcNAc
# Summary of the method: as §1
# [10] = target: Neu5Ac(a2-3)Gal(b1-3)[Fuc(a1-4)]GlcNAc(b1-3)Gal(b1-3)[Fuc(a1-4)]GlcNAc
# Summary of the method: as §1
# [11] = target: Neu5Ac(a2-3)Gal(b1-3)[Fuc(a1-4)]GlcNAc(b1-3)Gal(b1-4)[Fuc(a1-3)]GlcNAc
# Summary of the method: as §1
# [12] = target: Neu5Ac(a2-3)Gal(b1-3)[Neu5Ac(a2-3)Gal(b1-4)]GlcNAc
# Summary of the method: as §1
# [13] = target: Neu5Ac(a2-3)Gal(b1-3)[Neu5Ac(a2-6)]GalNAc
# Summary of the method: as §1
# Neu5Ac(a2-3)Gal(b1-4)Glc = target: Neu5Ac(a2-3)Gal(b1-4)Glc
# Summary of the method: as §1
# [14] = target: Neu5Ac(a2-3)Gal(b1-4)GlcNAc
# Summary of the method: as §1
# [15] = target: Neu5Ac(a2-3)Gal(b1-4)GlcNAc(b1-2)Man(a1-3)[GlcNAc(b1-2)Man(b1-4)GlcNAc(b1-2)Man(a1-6)]Man(b1-4)GlcNAc(b1-4)GlcNAc
# Summary of the method: as §1
# [16] = target: Neu5Ac(a2-3)Gal(b1-4)GlcNAc(b1-2)Man(a1-3)[Neu5Ac(a2-6)Gal(b1-4)GlcNAc(b1-2)Man(a1-6)]Man(b1-4)GlcNAc(b1-4)GlcNAc
# Summary of the method: as §1
# [17] = target: Neu5Ac(a2-3)Gal(b1-4)GlcNAc(b1-3)Gal(b1-3)GlcNAc
# Summary of the method: as §1
# [18] = target: Neu5Ac(a2-3)Gal(b1-4)GlcNAc(b1-3)Gal(b1-4)GlcNAc
# Summary of the method: as §1
# [19] = target: Neu5Ac(a2-3)Gal(b1-4)GlcNAc(b1-3)Gal(b1-4)GlcNAc(b1-3)Gal(b1-4)GlcNAc
# Summary of the method: as §1
# [20] = target: Neu5Ac(a2-3)Gal(b1-4)GlcNAc(b1-3)Gal(b1-4)[Fuc(a1-3)]GlcNAc
# Summary of the method: as §1
# [21] = target: Neu5Ac(a2-3)Gal(b1-4)GlcNAc(b1-3)GalNAc
# Summary of the method: as §1
# [22] = target: Neu5Ac(a2-3)Gal(b1-4)GlcNAc(b1-6)[Gal(b1-3)]GalNAc
# Summary of the method: as §1
# [23] = target: Neu5Ac(a2-3)Gal(b1-4)GlcNAc(b1-6)[Neu5Ac(a2-3)Gal(b1-3)]GalNAc
# Summary of the method: as §1
# [24] = target: Neu5Ac(a2-3)Gal(b1-4)GlcNAc6S
# Summary of the method: as §1
# [25] = target: Neu5Ac(a2-3)Gal(b1-4)[Fuc(a1-3)]GlcNAc
# Summary of the method: as §1
# [26] = target: Neu5Ac(a2-3)Gal(b1-4)[Fuc(a1-3)]GlcNAc(b1-3)Gal
# Summary of the method: as §1
# [27] = target: Neu5Ac(a2-3)Gal(b1-4)[Fuc(a1-3)]GlcNAc(b1-3)Gal(b1-4)GlcNAc
# Summary of the method: as §1
binder,measurement,setting,value
"GALT1 115 D492A (Arabidopsis thaliana), Q8L7F9 (protein) DPMRGSHHHHHHGMASMTGGQQMGRDLYDDDDKSRLQKPYITAAASVVVTPNTTLPMEWLRITLPDFMKEARNTQEAISGDDIAVVSGLFVEQNVSKEEREPLLTWNRLESLVDNAQSLVNGVDAIKEAGIVWESLVSAVEAKKLVDVNENQTRKGKEELCPQFLSKMNATEADGSSLKLQIPCGLTQGSSITVIGIPDGLVGSFRIDLTGQPLPGEPDPPIIVHYNVRLLGDKSTEDPVIVQNSWTASQDWGAEERCPKFDPDMNKKVDDLDECNKMVGGEINRTSSTSLQSNTSRGVPVAREASKHEKYFPFKQGFLSVATLRVGTEGMQMTVDGKHITSFAFRDTLEPWLVSEIRITGDFRLISILASGLPTSEESEHVVDLEALKSPTLSPLRPLDLVIGVFSTANNFKRRMAVRRTWMQYDDVRSGRVAVRFFVGLHKSPLVNLELWNEARTYGDVQLMPFVDYYSLISWKTLAICIFGTEVDSAKFIMKTDDAAFVRVDEVLLSLSMTNNTRGLIYGLINSDSQPIRNPDSKWYISYEEWPEEKYPPWAHGPGYIVSRDIAESVGKLFKEGNLKMFKLEDVAMGIWIAELTKHGLEPHYENDGRIISDGCKDGYVVAHYQSPAEMTCLWRKYQETKRSLCCREW",glycan array binding signal (z-score),Man(b1-4)GlcNAc,0.076
same,glycan array binding signal (z-score),Neu5Ac(a2-3)Gal,-0.088
same,glycan array binding signal (z-score),[1],-0.216
same,glycan array binding signal (z-score),[2],0.159
same,glycan array binding signal (z-score),[3],0.353
same,glycan array binding signal (z-score),[4],-0.335
same,glycan array binding signal (z-score),[5],-0.122
same,glycan array binding signal (z-score),[6],-0.243
same,glycan array binding signal (z-score),[7],-0.166
same,glycan array binding signal (z-score),[8],-0.323
same,glycan array binding signal (z-score),[9],-0.288
same,glycan array binding signal (z-score),[10],-0.269
same,glycan array binding signal (z-score),[11],-0.321
same,glycan array binding signal (z-score),[12],-0.145
same,glycan array binding signal (z-score),[13],-0.17
same,glycan array binding signal (z-score),Neu5Ac(a2-3)Gal(b1-4)Glc,-0.401
same,glycan array binding signal (z-score),[14],-0.047
same,glycan array binding signal (z-score),[15],-0.194
same,glycan array binding signal (z-score),[16],-0.045
same,glycan array binding signal (z-score),[17],-0.104
same,glycan array binding signal (z-score),[18],-0.147
same,glycan array binding signal (z-score),[19],-0.289
same,glycan array binding signal (z-score),[20],-0.212
same,glycan array binding signal (z-score),[21],-0.152
same,glycan array binding signal (z-score),[22],-0.271
same,glycan array binding signal (z-score),[23],-0.27
same,glycan array binding signal (z-score),[24],-0.078
same,glycan array binding signal (z-score),[25],-0.179
same,glycan array binding signal (z-score),[26],0.004
same,glycan array binding signal (z-score),[27],0.671
